Measurements from PubChem BioAssay AID624173 (National Center for Advancing Translational Sciences (NCATS), 2012).
Out of some 410,000 compounds screened, about 490 (0.12%) were called active. The shares of active, inactive and inconclusive entries below differ from those in the screen. The call rests on the fitted dose curve; in most records, active means well fitted inhibition curve with a large enough effect; inconclusive means small, poorly fitted or top-dose-only effect; inactive means flat fitted curve, though single readings scatter. A potency beside an inconclusive call is a rough fit, not a confirmed value.
Further: nearly all actives have a fitted effect of over 50% in size.
Potency means the concentration at half of the fitted maximal effect; tags describe the fitted curve by direction and shape.

The molecules below were run against pyruvate kinase (Trypanosoma brucei) (UniProt Q57TT1) (assay: qHTS of Trypanosoma Brucei Inhibitors). Conditions: TbPYK enzyme, Kinase-Glo Plus ATP luminescence, 45 min; series mostly up to 76.8 µM.
Excerpt: Members of the Trypanosomatidae family of parasitic protozoans cause a spectrum of diseases throughout the tropical and subtropical world. Sleeping sickness, caused by two subspecies of Trypanosoma brucei, is endemic to areas of sub-Saharan Africa, while Chagas' disease, a manifestation of Trypanosoma cruzi infection, is prevalent throughout Central and South America. In addition, many species of Leishmania are responsible for a range of cutaneous and visceral diseases, causing ulcers, destructive lesions and kalaazar, a lethal infection of the viscera. These diseases cause severe public health and economic burdens on populations that are often already caught in a tragic cycle of poverty, poor nutrition and disease. Collectively, parasites of the trypanosomatid family infect 30 million people worldwide (~500 million live in endemic areas), and account for ~130K deaths annually. Existing treatments have developed little in the past 50 years, and suffer from toxicity, poor efficacy and resistance; the goal of this project is to develop lead drugs that will be suitable for entry into pre-clinical trials.
Glycolysis in axenically cultured T. cruzi, representing the intracellular pathogenic stage, is also essential for these parasites. {Engel, 1987} This project aims to discover and optimize selective inhibitors of the glycolytic enzyme pyruvate kinase (PYK) from Trypanosoma brucei, the parasite that causes sleeping sickness. […] Trypanosomatid PYKs show significant differences from their human counterparts including only 47-50% sequence identity and different allosteric and activation properties.{Callens, 1992} To this end, a qHTS was done against the MLSMR to discover inhibitors.
NIH Molecular Libraries Probe Production Network [MLPCN]
NIH Chemical Genomics Center [NCGC]
PI Name: Malcolm Walkinshaw, University of Edinburgh
2 uL of TbPYK/substrate buffer (columns 1-3, 5-48) are dispensed into Greiner white solid bottom 1536-well assay plates; column 4 receives only TEA buffer as 0x TbPYK controls. Compounds are then transferred via Kalypsys pin tool equipped with 1536-pin array (10 nL slotted pins, V&P Scientific, San Diego, CA). Following addition of compound, 2 uL of ADP (130 uM final concentration, all columns) is added to initiate the reaction. The plates are then incubated at room temperature for 45 minutes. Kinase-Glo Plus reagent is added (3 uL) and plates incubated for 10 minutes, before being transferred to a ViewLux high-throughput CCD imager (PerkinElmer) wherein single end-point measurements of luminescence are acquired using a clear filter. All reagents are diluted in an assay buffer consisting of 50 mM TEA (pH 7.2), 100 mM KCl, 10 mM MgCl2, 0.05% BSA and 0.01% Tween-20.
All screening operations will be performed on a fully integrated robotic system (Kalypsys, San Diego, CA) containing one RX-130 and two RX-90 anthropomorphic robotic arms (Staeubli, Duncan, SC). Library plates will be screened starting from the lowest and proceeding to the highest concentration. Vehicle-only plates, with DMSO being pin-transferred to columns 5-48, will be inserted uniformly at the beginning and the end of each library in order to monitor and record any shifts in the background, which can be affected by reagent dispensers or loss in enzyme activity over time. Screening data will be corrected, normalized, and concentration-effect relationships will be derived by using publicly-available curve fitting algorithms developed in-house (http://ncgc.nih.gov/pub/openhts).
For `Cc1cccc(NC(=O)/C(C#N)=C/c2ccc[nH]2)c1C`, the Potency was “inactive”. With `O=Cc1c(Sc2ccccc2)nc2ccccn2c1=O` the Potency was inconclusive: 31.6 µM [inhibitor, single point]. With `O=C(O)Cc1sc(Nc2ccc(F)cc2)nc1-c1cccs1` the Potency was inconclusive: 39.8 µM [inhibitor, single point]. For `Cc1cc(C#N)c(SCC(N)=O)nc1-c1ccc(F)cc1`, the Potency was inconclusive: 12.6 µM [inhibitor, partial curve, poor fit]. `CCOC(=O)c1c(/N=C/C2C(=O)NC(=S)NC2=O)sc2c1CCC2` was tested, and the Potency was inconclusive: 17.8 µM [inhibitor, partial curve, poor fit]. For `CC1=NN(c2nc(-c3ccc(C)cc3)cs2)C(=O)C1N=Nc1ccccc1O` (stereo unspecified), the Potency was “inactive”. For `Cc1ccc2nc(-c3ccccn3)[nH]c2c1`, the Potency was inconclusive: 28.2 µM [inhibitor, partial curve]. `O=[N+]([O-])c1cccc(-c2n[nH]c(=S)n2-c2ccccc2)c1` was tested, and the Potency was inconclusive: 2.51 µM [inhibitor, full curve, poor fit]. `CCOc1ccccc1NC(=O)C(=O)NCCc1sc2nc(-c3ccc(OC)cc3)nn2c1C` was tested, and the Potency was “inactive”. With `CC(C)(C)C(=O)NC(=S)NNC(=O)c1ccc(-c2ccccc2)cc1` the Potency was “inactive”. For `Cc1oc(=O)c(NC(=O)c2cccc(Cl)c2)cc1C(=O)c1ccccc1`, the Potency was inconclusive: 35.5 µM [inhibitor, single point]. In the case of `O=C1/C(=C\c2ccncc2)CCc2ccccc21`, the Potency was inconclusive: 28.2 µM [inhibitor, partial curve]. With `S=c1[nH]nc(-c2ccc(Cl)cc2Cl)n1-c1ccc2c(c1)OCCO2` the Potency was active: 6.31 µM. With `COc1cccc(/C=N/NC(=O)C(C)n2nnc3ccccc32)c1` (stereo unspecified) the Potency was inconclusive: 28.2 µM [inhibitor, single point]. With `COc1ccc(-n2nnnc2Sc2ccc(S(=O)(=O)N3CCOCC3)cn2)cc1` the Potency was inconclusive: 25.1 µM [inhibitor, partial curve, poor fit]. With `COc1ccc(/C=N/n2c(-c3n[nH]c4c3CCC4)n[nH]c2=S)cc1` the Potency was inconclusive: 3.55 µM [inhibitor, full curve]. In the case of `C=CCn1c(C)cc(C)c(C#N)c1=O`, the Potency was “inactive”. With `Cc1ccn2c(-c3n[nH]c(=S)n3Cc3ccccc3)c(C)nc2c1` the Potency was inconclusive: 14.1 µM [inhibitor, partial curve, poor fit]. With `COc1ccc(C)cc1N(CC(=O)NCCN1CCOCC1)S(=O)(=O)c1ccccc1` the Potency was “inactive”. For `CCCc1nn2c(C)c(-c3ccccc3)nc2s1`, the Potency was “inactive”. With `O=C(NCc1ccco1)c1cccc2c1C(=O)c1ccc(/C=C/c3ccccc3)cc1S2(=O)=O` the Potency was inconclusive: 35.5 µM [inhibitor, partial curve, poor fit]. For `ClCc1nnc(-c2cc3c(s2)CCCC3)o1`, the Potency was “inactive”. In the case of `Cc1ccccc1NC(=O)c1sc2nc(N3CCOCC3)c3c(c2c1N)CC(C)(C)OC3`, the Potency was inconclusive: 1.78 µM [inhibitor, partial curve, poor fit]. `Cc1ccc(OCc2n[nH]c(=S)n2C2CCCCC2)cc1` was tested, and the Potency was inconclusive: 3.98 µM [inhibitor, partial curve]. `N#CC1=C2SCN(Cc3ccco3)CN2C(=O)CC1c1ccccc1F` (stereo unspecified) was tested, and the Potency was inconclusive: 5.62 µM [inhibitor, full curve]. With `COc1ccc(Nc2nc3ccccc3c(=O)[nH]2)cc1` the Potency was inconclusive: 31.6 µM [inhibitor, partial curve, poor fit]. In the case of `CN(C)c1ccc(C=C2C(=O)NC(=S)NC2=O)cc1`, the Potency was active: 31.6 µM. For `COc1ccc(-c2cc3nc(C)cc(N)n3n2)cc1`, the Potency was active: 22.4 µM. `O=c1[nH]c(C2CCCN(S(=O)(=O)c3ccc(F)cc3)C2)nc2c1nnn2Cc1ccc(F)cc1` (stereo unspecified) was tested, and the Potency was “inactive”. For `Cc1ccc(S(=O)(=O)c2nc(-c3ccco3)oc2SCC(N)=O)cc1`, the Potency was “inactive”. For `CCn1c(CN2C(=O)CSc3ccccc32)n[nH]c1=S`, the Potency was inconclusive: 14.1 µM [inhibitor, partial curve]. For `COc1ccc(CC(N)c2csc(NC(=O)Nc3cccc(C(F)(F)F)c3)n2)cc1` (stereo unspecified), the Potency was “inactive”. With `NC(=S)N/N=C/c1cn(-c2ccccc2)nc1-c1cccnc1` the Potency was inconclusive: 31.6 µM [inhibitor, single point]. With `S=c1[nH]nc(-c2ccco2)n1-c1ccccc1Cl` the Potency was inconclusive: 12.6 µM [inhibitor, partial curve]. `Nc1ccn(C[C@@H](CO)OCP(=O)(O)O)c(=O)n1` was tested, and the Potency was “inactive”. For `CCn1c(-c2ccccc2O)n[nH]c1=S`, the Potency was inconclusive: 31.6 µM [inhibitor, partial curve, poor fit]. With `Cc1nc(C(=O)NNC(=O)c2ccc(Cl)cc2)cs1` the Potency was “inactive”. For `Cc1nc(SCC(=O)c2cccc([N+](=O)[O-])c2)n[nH]1`, the Potency was inconclusive: 39.8 µM [inhibitor, partial curve]. In the case of `Cc1c(C=C2C(=O)N(C)C(=S)N(C)C2=O)c2ccccc2n1CC(=O)NCC1CCCO1` (stereo unspecified), the Potency was inconclusive: 22.4 µM [inhibitor, partial curve, poor fit]. With `CCc1n[nH]c(=S)n1/N=C/c1cc(Br)c(O)c(OC)c1` the Potency was inconclusive: 15.8 µM [inhibitor, partial curve, poor fit]. With `COC(=O)COc1ccc2occ(C(C)=O)c2c1` the Potency was inconclusive: 5.01 µM [inhibitor, partial curve, poor fit]. With `COc1cccc(C(c2c(NC(=O)c3ccco3)sc(C)c2C)N2CCOCC2)c1` (stereo unspecified) the Potency was “inactive”. In the case of `CCOC(=O)c1c(-c2ccc(OC)cc2)csc1NC(=O)CCN1C(=O)c2ccccc2C1=O`, the Potency was inconclusive: 10 µM [inhibitor, partial curve]. In the case of `CCOC(=O)c1c(C)nc(C)c(C(=O)OCC)c1-c1ccc(O)c(OC)c1`, the Potency was inconclusive: 3.16 µM [inhibitor, full curve, poor fit]. For `CCOC(=O)c1cc(C)[nH]c(=S)c1C#N`, the Potency was inconclusive: 20 µM [inhibitor, partial curve, poor fit]. `CC12CCC(=O)N1C(C(=O)NNC(=O)COc1ccccc1F)CS2` (stereo unspecified) was tested, and the Potency was inconclusive: 17.8 µM [inhibitor, partial curve, poor fit]. With `CN(C)c1nc(=Nc2cccc(Cl)c2)ss1` the Potency was inconclusive: 15.8 µM [inhibitor, partial curve, poor fit]. With `COCCNC(=O)c1ccc(Cn2c(=S)[nH]c3cc4c(cc3c2=O)OCO4)cc1` the Potency was inconclusive: 14.1 µM [inhibitor, partial curve, poor fit]. With `COCCCNC(=O)c1ccc(-n2c(-c3ccccc3)cc3c2CCC(C)C3)cc1` (stereo unspecified) the Potency was “inactive”. For `O=C(COc1ccccc1F)Nc1nnc(SCc2cc(=O)c3ccccc3[nH]2)s1`, the Potency was inconclusive: 39.8 µM [inhibitor, partial curve, poor fit]. `O=C(CNC(=O)c1ccc(-c2ccccc2)cc1)OCc1c(Cl)cccc1Cl` was tested, and the Potency was “inactive”. For `Oc1c(CN2CCOCC2)cc(CN2CCOCC2)c(O)c1CN1CCOCC1`, the Potency was inconclusive: 17.8 µM [inhibitor, partial curve, poor fit]. With `COc1ccc(-c2noc(-c3ccccc3C(=O)Nc3cccc(OC)c3)n2)cc1` the Potency was inconclusive: 31.6 µM [inhibitor, single point]. `COc1ccc(-c2c3c(=O)n(C)c(=O)n(C)c3cn2Cc2cccnc2)cc1` was tested, and the Potency was “inactive”. For `NC(=O)CC(c1ccccc1)c1ccco1` (stereo unspecified), the Potency was “inactive”. In the case of `Clc1ccc(-n2nnc(-c3nccs3)n2)cc1Cl`, the Potency was inconclusive: 28.2 µM [inhibitor, partial curve]. For `Cc1[nH]c2ccc(-c3n[nH]c(=S)n3-c3ccccc3)cc2c1C`, the Potency was inconclusive: 3.16 µM [inhibitor, full curve]. In the case of `CCCC(=O)c1cc(CP(=O)(OCC)OCC)oc1C`, the Potency was inconclusive: 14.1 µM [inhibitor, partial curve, poor fit]. With `CCN(CC)c1ccc(/C=C2\C(=O)c3ccc(C(=O)O)cc3C2=O)cc1` the Potency was active: 25.1 µM. For `O=c1[nH]cc(S(=O)(=O)NCc2ccccc2)c(=O)[nH]1`, the Potency was “inactive”. `CCCCN1C(=O)C(CC(=O)NC2CCCC2)CC(C(=O)N2CCOCC2)=C1C` (stereo unspecified) was tested, and the Potency was “inactive”. In the case of `COc1ccc2nc(NC(=O)c3ccoc3C)sc2c1`, the Potency was inconclusive: 31.6 µM [inhibitor, partial curve, poor fit]. With `CCCC(=O)Nc1nnc(SCc2cc(=O)c3ccc(C)cc3[nH]2)s1` the Potency was “inactive”. `CN(C)CCN1C(=O)c2oc3ccccc3c(=O)c2C1c1cccc(Br)c1` (stereo unspecified) was tested, and the Potency was “inactive”. With `S=c1[nH]nc(CSCc2ccc(Cl)cc2Cl)n1-c1ccccc1` the Potency was inconclusive: 12.6 µM [inhibitor, partial curve]. `COCCn1c(C)cc(C2=NNC(=NC3CC3)SC2)c1C` was tested, and the Potency was inconclusive: 28.2 µM [inhibitor, partial curve]. In the case of `COc1cccc(CN2CCC2(C)C(=O)Nc2cnc3ccccc3c2)c1F` (stereo unspecified), the Potency was inconclusive: 35.5 µM [inhibitor, partial curve, poor fit]. `Fc1ccccc1-c1n[nH]c(=S)n1Cc1ccccc1` was tested, and the Potency was inconclusive: 3.98 µM [inhibitor, partial curve, poor fit]. With `COc1ccc(NC(=O)C2C3C=CC(O3)C2C(=O)O)cc1` (stereo unspecified) the Potency was “inactive”. `Cc1ccc(C(C2=C(O)CC(C)(C)CC2=O)C2C(=O)CC(C)(C)CC2=O)s1` (stereo unspecified) was tested, and the Potency was inconclusive: 39.8 µM [inhibitor, single point]. For `COc1ccc(-c2n[nH]c(=S)n2Cc2ccco2)cc1`, the Potency was inconclusive: 8.91 µM [inhibitor, partial curve].
